Data reported in publication PMC5540273 (PLoS ONE, 2017).
For part of these data: Shown are results outside the selection of strong results, which stands elsewhere. This is a selection; strong and weak results do not stand in their true shares.

Tests used:
Details in all cases: concentration: 1 μM,replicates: in singlicate; n = 1
[1] = tested on: DAPK3
[2] = tested on: T1, DCAMKL1
T1 construct: gene DCLK1

[3] = tested on: T2, DCAMKL2
T2 construct: gene DCLK2

[4] = tested on: T3, DCAMKL3
T3 construct: gene DCLK3

[5] = tested on: DDR1
[6] = tested on: DDR2
[7] = tested on: T4, DLK
T4 construct: gene MAP3K12

[8] = tested on: T5, DMPK2
T5 construct: gene CDC42BPG

[9] = tested on: DMPK
[10] = tested on: T6, DRAK1
T6 construct: gene STK17A

[11] = tested on: T7, DRAK2
T7 construct: gene STK17B

[12] = tested on: DYRK1A
[13] = tested on: DYRK1B
[14] = tested on: DYRK2
[15] = tested on: EGFR
[16] = tested on: EIF2AK1
[17] = tested on: EPHA1
[18] = tested on: EPHA2
[19] = tested on: EPHA3
[20] = tested on: EPHA4
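Also: KINOMEscan kinase panel screen.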

| Structure (SMILES) | %Inh [1] | %Inh [2] | %Inh [3] | %Inh [4] | %Inh [5] | %Inh [6] | %Inh [7] | %Inh [8] | %Inh [9] | %Inh [10] | %Inh [11] | %Inh [12] | %Inh [13] | %Inh [14] | %Inh [15] | %Inh [16] | %Inh [17] | %Inh [18] | %Inh [19] | %Inh [20] |
| --- | --- | --- | --- | --- | --- | --- | --- | --- | --- | --- | --- | --- | --- | --- | --- | --- | --- | --- | --- | --- |
| O=C1NC(=O)C(c2ccc(Cl)cc2)=C1Nc1cccc(C(=O)O)c1 [SB-360737] | 0% | 14% | 0% | 0% | 10% | 1% | 5% | 7% | 0% | 0% | 0% | 38% | 0% | 23% | 16% | 14% | 23% | 0% | 0% | 14% |
| CS(=O)(=O)c1ccccc1-c1nc(-c2ccc(F)cc2)c(-c2ccncc2)[nH]1 [SB-213663] | 0% | 0% | 4% | 0% | – | 58% | 12% | 87% | 29% | 0% | 0% | 8% | 33% | 7% | 48% | 0% | 0% | 9% | 39% | 0% |
| O=C1NC(=O)C(c2ccc(Cl)cc2)=C1Nc1ccccc1 [SB-317661] | 22% | 16% | 0% | 0% | 0% | 14% | 13% | 0% | 0% | 0% | 0% | 0% | 24% | 49% | 12% | 0% | 0% | 0% | 11% | 0% |
| Cc1cc(C)cc(Oc2nccc(-c3c(-c4ccc(F)cc4)ncn3C3CCNCC3)n2)c1.O=C(O)C(F)(F)F.O=C(O)C(F)(F)F.O=C(O)C(F)(F)F [SB-284851] | 16% | 33% | 0% | 6% | 0% | 39% | 0% | 79% | 0% | 0% | 15% | 0% | 6% | 0% | 26% | 0% | 17% | 0% | 0% | 1% |
| O=C1NC(=O)c2c1c(-c1ccccc1)cc1[nH]c3ccc(O)cc3c21 | 7% | 18% | 23% | 91.5% | 0% | 3% | 14% | 3% | 98.4% | 85% | 42% | 37% | 2% | 88% | 1% | 8% | 20% | 21% | 0% | 0% |
| O=C1NC(=O)C(c2ccccc2Cl)=C1Nc1ccccc1 [SB-376715] | 12% | 0% | 0% | 45% | 0% | 16% | 9% | 0% | 29% | 2% | 0% | 43% | 22% | 11% | 11% | 0% | 0% | 8% | 12% | 0% |
| O=C(O)c1ccc(-c2nc(-c3ccc(F)cc3)c(-c3ccncc3)[nH]2)cc1 [SB-202620] | 17% | 49% | 8% | 20% | 75% | 79% | 0% | 21% | 31% | 1% | 4% | 0% | 2% | 13% | 76% | 0% | 0% | 0% | 27% | 25% |
| O=C1NC(=O)C(c2ccccc2Cl)=C1Nc1cccc(C(=O)O)c1 [SB-390526] | 0% | 3% | 0% | 1% | 13% | 24% | 16% | 0% | 1% | 0% | 0% | 49% | 22% | 14% | 12% | 10% | 3% | 14% | 0% | 5% |
| O=C1NC(=O)C(c2ccc(Cl)cc2)=C1Nc1cccc(O)c1 [SB-333613] | 28% | 5% | 18% | 0% | 17% | 36% | 5% | 3% | 3% | 18% | 16% | 58% | 0% | 23% | 9% | 15% | 0% | 0% | 27% | 0% |
| COc1ccc(C2=C(Nc3cccc(Cl)c3)C(=O)NC2=O)cc1 [SB-326892] | 0% | 6% | 0% | 32% | 0% | 0% | 5% | 0% | 0% | 4% | 0% | 31% | 23% | 17% | 10% | 0% | 32% | 7% | 0% | 20% |
| CSc1ccc(NC2=C(c3cccc(Cl)c3)C(=O)NC2=O)cc1 [SB-341528] | 0% | 28% | 10% | 0% | 0% | 24% | 0% | 0% | 0% | 1% | 7% | 5% | 0% | 0% | 2% | 1% | 13% | 35% | 21% | 0% |
| O=C1NC(=O)C(c2ccc(Cl)cc2)=C1Nc1ccc(O)c(Cl)c1 [SB-405367] | 0% | 32% | 0% | 4% | 64% | 0% | 0% | 0% | 0% | 0% | 0% | 26% | 0% | 0% | 9% | 10% | 1% | 18% | 1% | 0% |
| O=C1NC(=O)C(c2ccccc2)=C1Nc1cc(Cl)c(O)c(Cl)c1 [SB-390530] | 0% | 0% | 0% | 27% | 0% | 0% | 0% | 0% | 0% | 0% | 4% | 18% | 3% | 14% | 0% | 0% | 0% | 0% | 0% | 23% |
| O=C1NC(=O)C(c2ccccc2)=C1Nc1ccc(Cl)c(C(=O)O)c1 [SB-390532] | 20% | 18% | 1% | 2% | 0% | 45% | 38% | 0% | 0% | 1% | 0% | 17% | 0% | 0% | 30% | 0% | 26% | 16% | 0% | 0% |
| COc1cccc(C2=C(Nc3ccc(SC)cc3)C(=O)NC2=O)c1 [SB-331032] | 20% | 21% | 7% | 9% | 0% | 32% | 0% | 11% | 25% | 0% | 0% | 44% | 8% | 35% | 11% | 0% | 0% | 0% | 25% | 0% |
| Cc1ccc(C)c(Oc2nccc(-c3c(-c4ccc(F)cc4)ncn3C3CCNCC3)n2)c1.O=C(O)C(F)(F)F.O=C(O)C(F)(F)F.O=C(O)C(F)(F)F [SB-284852] | 0% | 23% | 0% | 23% | 2% | – | 0% | 94.8% | 4% | 0% | 10% | 0% | 13% | 0% | 47% | 0% | 31% | 22% | 0% | 16% |
